# Measured values from PubChem BioAssay AID588855 (National Center for Advancing Translational Sciences (NCATS), 2011).
# In all, about 410,000 compounds went through this assay and about 5,000 (1.2%) were called active. The shares of active, inactive and inconclusive entries below differ from those in the screen. The call rests on the fitted dose curve; in most records, active means well fitted inhibition curve with a large enough effect; inconclusive means small, poorly fitted or top-dose-only effect; inactive means no such curve, though single readings can be large or run the other way. Potencies beside an inconclusive call are fits to weak or partial responses and may not hold up.
# Assay: qHTS for Inhibitors of TGF-b; further: nearly all actives have a fitted effect of over 65% in size
# Conditions: HepG2 CAGA-GFP TGF-b/SMAD3 reporter, GFP fluorescence, 18 h, TGF-beta stimulated, 500 pg/mL final; series mostly up to 46.1 µM
# How it was run: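 Per well, imaged GFP fluorescence of HEPG2 CAGA-GFP cells gives the signal; cells get compound, then TGF-beta (500 pg/mL final), 18 h at 37 degrees C; %Activity versus -TGF-beta and +DMSO controls.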
# Potency means the concentration at half of the fitted maximal effect; tags describe the fitted curve by direction and shape.
row,Structure (SMILES),Potency
1,Cc1ccc2nc(NC(=O)CSc3nccn3Cc3ccc(F)cc3)sc2c1,"inconclusive: 12.6 µM [inhibitor, single point]"
2,COc1ccccc1Nc1nc(NCCC(C)C)nc(N)c1[N+](=O)[O-],"inconclusive: 35.5 µM [inhibitor, single point]"
3,COC(=O)c1ccc(Cn2c(SCc3ccc(F)cc3)nc3ccncc32)cc1,"inconclusive: 6.31 µM [inhibitor, partial curve, poor fit]"
4,Cc1nn(-c2cccc(C(F)(F)F)c2)c(=O)c2ccccc12,inactive
5,Cc1cc(C)n(-c2nc(SCCN(C)C)c3c4c(sc3n2)CCCC4)n1,"inconclusive: 35.5 µM [inhibitor, single point]"
6,Cc1ccc(CNC(=O)CSC2=Nc3ccccc3N=C(c3ccc(F)cc3)C2)cc1,"inconclusive: 3.16 µM [inhibitor, single point]"
7,CC1=NN(c2ccccc2)C(=O)C1(C)[N+](=O)[O-] (configuration not stated),"inconclusive: 35.5 µM [inhibitor, single point]"
8,O=C(Nc1ccccc1C(=O)NCCCN1CCOCC1)c1cccc([N+](=O)[O-])c1,inactive
9,COc1ccc(O)c(C(=O)c2coc(=N)c(C(=O)Nc3ccc(SC(F)F)cc3)c2)c1,"inconclusive: 14.1 µM [inhibitor, partial curve, poor fit]"
10,COc1ccc(-c2nnc(NC(=O)C3CCCN3S(=O)(=O)c3cccs3)o2)cc1 (configuration not stated),inactive
11,Cc1ccc(C2=NN(C(=O)c3ccco3)C(O)(C(F)(F)F)C2)cc1 (configuration not stated),inactive
12,Cn1c(-c2ccccc2)cc2ccccc21,inactive
13,C=CCc1ccc(OCC(O)CN2CCN(Cc3ccc(Cl)cc3)CC2)c(OC)c1 (configuration not stated),"inconclusive: 22.4 µM [inhibitor, single point]"
14,C[C@H]1CN([C@@H](C)CO)C(=O)c2cc(Br)cnc2O[C@@H]1CN(C)S(=O)(=O)c1cn(C)cn1,"inconclusive: 0.316 µM [inhibitor, partial curve, poor fit]"
15,O=C(CN1C(=O)S/C(=C\c2ccccc2)C1=O)NC1CCS(=O)(=O)C1 (configuration not stated),inactive
16,O=C(O)c1ccc(S(=O)(=O)Nc2ccc3c(c2)OCCO3)cc1,inactive
17,CCOC(=O)c1cccc(NC(=O)NC(C)c2c(-n3cccc3)sc3c2CCN(C)C3)c1 (configuration not stated),"inconclusive: 35.5 µM [inhibitor, single point]"
18,CCOC(=O)C1=C(c2ccccc2)c2ccc(OC)cc2N(S(=O)(=O)C(F)(F)F)C1C(=O)OCC (configuration not stated),"inconclusive: 35.5 µM [inhibitor, single point]"
19,CCN(CC(=O)Nc1cccc(F)c1)CC(=O)Nc1ccccc1OC,inactive
20,COc1ccc(/C=N/NC(=O)CN(Cc2ccccc2)S(=O)(=O)c2ccc3c(c2)OCCO3)cc1,"inconclusive: 0.501 µM [inhibitor, full curve]"
21,O=C1C[C@H]2C=CCc3cccc(c32)CN1Cc1ccc(F)cc1,"inconclusive: 10 µM [inhibitor, partial curve]"

row,Structure (SMILES),Potency
1,COc1ccc(OC)c(NC(=O)COC(=O)c2ccc(S(=O)(=O)N3CCCCC3)cc2)c1,"inconclusive: 0.1 µM [inhibitor, full curve, poor fit]"
2,O=S(=O)(c1ccc(NC(=S)NCCc2ccccc2)cc1)N1CCOCC1,"inconclusive: 35.5 µM [inhibitor, single point]"
3,O=C(NCCNc1ccc([N+](=O)[O-])cc1C(F)(F)F)c1cccc(F)c1,"inconclusive: 35.5 µM [inhibitor, partial curve, poor fit]"
4,O=C(CSCc1ccc(Cl)cc1)N/N=C/c1ccco1,inactive
5,Cc1ccccc1C(=O)N1CCC(C(=O)Nc2ccc(F)cc2F)CC1,inactive
6,CCOc1ccc(NS(=O)(=O)c2cc(C(=O)N3CCN(c4ccccc4O)CC3)ccc2Cl)cc1,"inconclusive: 31.6 µM [inhibitor, single point]"
7,C=CCn1c(=O)[nH]c(=O)c2c(N)c(C(=O)c3ccc(OC)cc3)sc21,"inconclusive: 12.6 µM [inhibitor, partial curve, poor fit]"
8,CC(=O)Nc1ccc(-c2csc(N/N=C(/C)c3ccccc3)n2)cc1,inactive
9,O=C([C@@H]1CC=C[C@@H]2CCN(C3CC3)C(=O)[C@@H]21)N1CCOCC1,inactive
10,CCOC(=O)C1=CCC(c2cccs2)N(S(=O)(=O)c2ccc(C)cc2)C1 (configuration not stated),"inconclusive: 35.5 µM [inhibitor, single point]"
11,CC(C)Cc1ccc(C(C)C(=O)Nc2ccc(O)cc2)cc1 (configuration not stated),"inconclusive: 35.5 µM [inhibitor, single point]"
12,CCC(CC)C(=O)N(C)c1c(C)nc2c(OCC3CCCCC3)cccn12,"inconclusive: 22.4 µM [inhibitor, single point]"
13,CCC1CN(C(=O)N2CCC(C(=O)N3CCN(c4ccccc4F)CC3)CC2)c2ccccc2O1 (configuration not stated),"inconclusive: 15.8 µM [inhibitor, partial curve, poor fit]"
14,CC1(C(=O)Nc2ccc3nc[nH]c3c2)CCN1C(=O)C/C=C/c1ccccc1 (configuration not stated),inactive
15,O=C(COc1cc(F)ccc1[N+](=O)[O-])Nc1ccc(N2CCCCC2)cc1,inactive
16,CS(=O)(=O)c1ccc(C(=O)OCC(=O)NCC2CCCO2)cc1[N+](=O)[O-] (configuration not stated),"inconclusive: 28.2 µM [inhibitor, single point]"
17,Fc1ccccc1Nc1nc(N2CCOCC2)nc(N2CCOCC2)n1,"inconclusive: 5.62 µM [inhibitor, partial curve]"
18,Oc1ccc(Cl)cc1CNc1cnc2ccccc2c1,"inconclusive: 35.5 µM [inhibitor, single point]"
19,CC(=O)Nc1ccc(NC(=O)c2nc(S(=O)(=O)Cc3ccccc3)ncc2Cl)cc1,"inconclusive: 25.1 µM [inhibitor, single point]"
20,COc1ccc(CNC(=O)C2CCCN(c3nnc(C)c4c(C)n(-c5ccc(C)cc5)nc34)C2)cc1 (configuration not stated),"inconclusive: 17.8 µM [inhibitor, single point]"
21,Cc1ccc(S(=O)(=O)Nc2cccc(C(=O)NCC3CCCO3)c2)cc1F (configuration not stated),"inconclusive: 5.62 µM [inhibitor, single point]"
